# Results published in the supplement of paper PMC4967469.
# The IC50 comes from the fitted curve, where viability falls to half of the control; fits outside the tested doses are given as limits. AUC, from the same fit, is the share of area under the viability curve across the 256-fold dose range; it is 1 without any effect and falls as sensitivity rises. For some assays here: An inferred top dose was derived from the fitted curves, not read from the paper.
# Key:
# Assay in all cases: Viability of human cancer cell lines after 72 h of drug (GDSC screen)
# Trametinib = compound: CC(=O)Nc1cccc(-n2c(=O)n(C3CC3)c(=O)c3c(Nc4ccc(I)cc4F)n(C)c(=O)c(C)c32)c1 [Trametinib]; conditions: top dose 1 µM
# Experimental: (§1)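 Human cancer cell lines in 384-well plates, medium with 10% serum, drug for 72 h over a 256-fold dose range (nine 2-fold or five 4-fold steps up to the top dose). Adherent lines were fixed and stained with the nucleic acid dye Syto60, suspension lines read with resazurin; signal relative to control wells, capped at 0 and 100%. One two-parameter sigmoid per drug and line, fitted in a mixed model over all curves with the slope shared within a line.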
# HG-6-64-1 = compound: CCN1CCN(Cc2ccc(NC(=O)c3ccc(C)c(/C=C/c4cnc5[nH]ccc5c4OC)c3)cc2C(F)(F)F)CC1 [HG-6-64-1]; conditions: top dose 5.12 µM; top dose inferred
# Experimental: as §1
# PF-4708671 = compound: CCc1cncnc1N1CCN(Cc2nc3ccc(C(F)(F)F)cc3[nH]2)CC1 [PF-4708671]; conditions: top dose 10 µM; top dose inferred
# Experimental: as §1
# AV-951 = compound: COc1cc2nccc(Oc3ccc(NC(=O)Nc4cc(C)on4)c(Cl)c3)c2cc1OC [AV-951]; conditions: top dose 0.128 µM; top dose inferred
# Experimental: as §1
# KIN001-244 = compound: O=C(NC(COc1ccc2[nH]c(=O)[nH]c2c1)c1ccccc1)c1cccn(Cc2ccc(F)c(F)c2)c1=O [KIN001-244]; conditions: top dose 20 µM; top dose inferred
# Experimental: as §1
# I-BET-762 = compound: CCNC(=O)C[C@@H]1N=C(c2ccc(Cl)cc2)c2cc(OC)ccc2-n2c(C)nnc21 [I-BET-762]; conditions: top dose 20 µM; top dose inferred
# Experimental: as §1
Cell Line,AUC (Trametinib),IC50 (Trametinib) [µM],AUC (HG-6-64-1),IC50 (HG-6-64-1) [µM],AUC (PF-4708671),IC50 (PF-4708671) [µM],AUC (AV-951),IC50 (AV-951) [µM],AUC (KIN001-244),IC50 (KIN001-244) [µM],AUC (I-BET-762),IC50 (I-BET-762) [µM]
"P12-ICHIKAWA (T-cell lymphoblastic leukaemia, suspension)",0.994,> 1,0.907,4.15,0.926,9.81,0.994,> 0.128,0.832,8.99,,
"PC-3 (prostate, adherent)",0.98,> 1,0.964,> 5.12,0.96,> 10,0.976,> 0.128,0.822,15.2,,
"PEO1 (ovary, adherent)",0.583,0.107,,,0.987,> 10,0.986,> 0.128,0.824,12.5,0.838,14.4
"RCC-AB (kidney, adherent)",0.766,0.483,,,0.98,> 10,0.972,> 0.128,0.837,19.6,0.832,18.5
"RCC-ER (kidney, adherent)",0.891,> 1,,,0.957,> 10,0.985,> 0.128,0.953,> 20,0.977,> 20
"RCC-FG2 (kidney, adherent)",0.693,0.255,,,0.949,> 10,0.978,> 0.128,0.922,> 20,0.971,> 20
"RCC-JF (kidney, adherent)",0.498,0.0617,,,0.968,> 10,0.982,> 0.128,0.888,> 20,0.913,> 20
"RCC-JW (kidney, adherent)",0.813,0.558,,,0.976,> 10,0.985,> 0.128,0.896,> 20,0.967,> 20
"RCC-MF (kidney, adherent)",0.637,0.168,,,0.891,> 10,0.974,> 0.128,0.723,6.61,0.907,> 20
"RH-41 (rhabdomyosarcoma, adherent)",0.943,> 1,0.81,2.18,0.981,> 10,0.992,> 0.128,0.965,> 20,,
"RMG-I (ovary, adherent)",0.251,0.0105,0.858,> 5.12,,,0.979,> 0.128,0.83,15.5,0.837,16.7
"SCC90 (head and neck, adherent)",0.418,0.0339,0.8,3.81,,,,,,,,
"SK-GT-4 (oesophagus, adherent)",0.381,0.027,,,0.947,> 10,0.975,> 0.128,0.877,> 20,0.826,16.3
"SK-MG-1 (glioma, adherent)",0.879,> 1,,,0.986,> 10,0.98,> 0.128,0.852,15.7,0.958,> 20
"SK-OV-3 (ovary, adherent)",0.82,0.775,0.664,1.03,,,0.969,> 0.128,0.844,> 20,0.79,11.6
"SNU-61 (large intestine, adherent)",0.734,0.367,,,0.911,> 10,0.953,> 0.128,0.887,> 20,0.788,12
"SNU-81 (large intestine, adherent)",0.772,0.522,,,0.96,> 10,0.973,> 0.128,0.872,> 20,0.974,> 20
"SNU-407 (large intestine, adherent)",0.324,0.0184,,,0.951,> 10,0.978,> 0.128,0.665,3.9,0.674,4.17
"SNU-C5 (large intestine, adherent)",0.613,0.132,,,0.986,> 10,0.971,> 0.128,0.952,> 20,0.952,> 20
"STS-0421 (soft tissue, adherent)",0.646,0.171,0.645,0.866,,,,,,,,
"SW1116 (large intestine, adherent)",0.508,0.0662,,,0.944,> 10,0.98,> 0.128,0.985,> 20,0.981,> 20
"T47D (breast, adherent)",0.936,> 1,0.93,> 5.12,0.883,> 10,0.972,> 0.128,0.737,8.78,,
"TE-4 (oesophagus, adherent)",0.461,0.0488,,,0.974,> 10,0.986,> 0.128,0.977,> 20,0.97,> 20
"U-2-OS (osteosarcoma, adherent)",0.509,0.0661,0.632,0.768,0.953,> 10,0.971,> 0.128,0.985,> 20,,
"UWB1.289 (ovary, adherent)",0.765,0.556,,,0.972,> 10,0.977,> 0.128,0.851,> 20,0.935,> 20
"YH-13 (glioma, adherent)",0.71,0.254,,,0.947,> 10,0.963,> 0.128,0.881,> 20,0.895,> 20
